The full ranking holds about 33,000 sequences; the median of “E-score (-0.5 to 0.5)” is about -0.056, and the highest 2% start at about 0.38. This is one part of the list.
These sequences were tested against Stb4 (UniProt P50104) (assay: PBM E-score (8-mer binding enrichment) (E-score (-0.5 to 0.5)); higher = stronger / more preferred TF binding; most listed sequences are background and not binding sites). Details: protein concentration: 200 nM; construct: GST-DNA-binding domain.
How it was run: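 The E-score, a modified Wilcoxon-Mann-Whitney statistic, was computed by the Universal PBM Analysis Suite for every ungapped eight-base word pooled with its reverse complement. Scans behind it were normalised with masliner after bound GST-tagged yeast transcription factors were detected with fluorescent anti-GST. The proteins, at about 100-200 nM, had been applied to universal all-10-mer Agilent arrays made double-stranded by primer extension.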

| Sequence | PBM E-score |
| --- | --- |
| GTCCTTGA | -0.136 |
| AAAAGCGA | 0.0415 |
| AACCCCCC | -0.264 |
| ATGCCCCC | -0.203 |
| CGCAGAGC | -0.176 |
| CTAACTGC | -0.0992 |
| GCATCTTA | -0.0588 |
| ACCCTTTA | -0.116 |
| CAATATCG | -0.0235 |
| ACGGCAAA | 0.243 |
| AGCCCCCC | -0.102 |
| GCTTAGGA | -0.152 |
| ATTATAAG | -0.0991 |
| CCATTACA | 0.00492 |
| CGGAGCCA | 0.201 |
| GAGGGCAC | 0.00272 |
| GTACTAAC | 0.0366 |
| CATCAAGG | -0.242 |
| CCAATTAC | -0.151 |
| GACCACAA | 0.0537 |
| GTCGCTGA | -0.156 |
| AATGGTAG | -0.228 |
| ACATACAG | -0.116 |
| GAGACTAC | 0.0364 |
| AAGACTGA | -0.25 |

| Sequence | PBM E-score |
| --- | --- |
| CCGAAAAC | 0.41 |
| ACCTACAG | -0.0914 |
| CTCCGTGA | 0.133 |
| CACTAGTA | -0.196 |
| GACTTACA | -0.0902 |
| GCGGTGCC | -0.0706 |
| GATGCCTA | -0.127 |
| CAGTGGGG | -0.161 |
| GAGGAAAC | 0.058 |
| ACCAGGCC | -0.0604 |
| TAAATCGA | -0.211 |
| CCCGCTAA | 0.116 |
| AACAGATA | 0.00832 |
| ACCTATAA | -0.13 |
| ATCGAGTC | -0.196 |
| CTGCTGTC | -0.0903 |
| ATCCGACA | 0.442 |
| CACCACAC | -0.0841 |
| CGTGACAG | -0.0186 |
| CCGAAGCA | 0.35 |
| CAACATTG | -0.00255 |
| AGCGCGGG | 0.169 |
| CATGTAGA | -0.184 |
| ATCTGCAC | -0.0633 |
| GCTGGATA | -0.0787 |

| Sequence | PBM E-score |
| --- | --- |
| GACTTTCC | 0.0712 |
| AGACGATG | -0.065 |
| GATGCCAC | -0.0531 |
| ACCTTAAC | 0.0163 |
| AGTTTCGC | 0.0157 |
| GGTGTATA | -0.0247 |
| AACCGTCC | 0.144 |
| ATTAAGAG | -0.021 |
| ACCAGCCC | 0.135 |
| CGATTGAC | -0.238 |
| ATACGGGA | 0.237 |
| ACCCGACA | 0.402 |
| CCTATATA | -0.103 |
| ACGCCAGA | -0.077 |
| CAAGCTAA | -0.19 |
| AGACTCCG | 0.124 |
| CGCGGTGC | -0.142 |
| ATCCACAT | -0.00034 |
| AGGGGAGG | 0.117 |
| AAACAGTG | -0.16 |
| CAACTTCG | -0.0637 |
| AATATTTG | -0.0677 |
| AGCGTCCA | -0.199 |
| CTTCCTGA | -0.00442 |
| GCGTCCTA | -0.227 |

| Sequence | PBM E-score |
| --- | --- |
| CCCGGCCG | 0.287 |
| GGGTACCC | 0.211 |
| CAAAGCCA | -0.265 |
| CATACATC | 0.0283 |
| AATACTGG | -0.159 |
| CCCAGCAC | -0.154 |
| CATATCAG | -0.156 |
| GATTGCGA | 0.217 |
| CGGTTGAC | 0.264 |
| AGATTCTG | -0.129 |
| CGTAAAGA | -0.0382 |
| CTGCTAGA | -0.115 |
| CAGACCCA | -0.207 |
| ACAACACG | -0.0121 |
| TTAGGCAA | -0.328 |
| CCATACGG | 0.135 |
| AATTACAA | -0.295 |
| AGATTTAT | 0.183 |
| GGGGACGA | -0.0717 |
| AACATAAA | -0.0944 |
| GGGATGCA | 0.00455 |
| ACAATCTA | -0.0973 |
| GCTTAGCC | 0.145 |
| CATCTGGG | -0.248 |
| CGCACACC | 0.0525 |

| Sequence | PBM E-score |
| --- | --- |
| ACGGCTTA | 0.169 |
| ATCTACCG | 0.267 |
| AACTAGAG | -0.273 |
| TGACTGAA | -0.15 |
| AGACACGA | -0.171 |
| ACTAGAGG | -0.127 |
| ATCACTCA | -0.114 |
| GGGAGCGA | 0.00915 |
| GATCTAAA | 0.138 |
| GATACTCA | 0.0843 |
| GACTCGCC | -0.137 |
| CCGAGTGA | 0.338 |
| CACCCGAA | 0.436 |
| AATGCCGA | 0.415 |
| GTCGTCGA | -0.221 |
| AGCGCCGC | 0.00426 |
| GGCGAAAA | 0.0268 |
| AGCAGAGA | -0.208 |
| ACGAAATG | -0.0746 |
| GAAGTCCA | 0.0735 |
| GCATTTAA | 0.126 |
| CCATCGCG | 0.0831 |
| CCGAGCAC | 0.413 |
| AGAAGGCA | -0.217 |
| TAACTATA | -0.232 |

| Sequence | PBM E-score |
| --- | --- |
| GCGGCAGC | 0.103 |
| GCCCAGGA | -0.0894 |
| AATCGAAT | 0.00368 |
| GACTAGCA | -0.114 |
| CTTTAGAA | 0.0773 |
| ACGTAGGA | -0.123 |
| ACGCTGTA | -0.113 |
| CTATAATC | -0.152 |
| CTGCCGCA | 0.0287 |
| AAACTTCT | 0.067 |
| GGCAAGCC | -0.0599 |
| AATTTGTG | 0.0806 |
| AAGGACAA | -0.028 |
| CTGGGACA | -0.154 |
| AACGCACT | -0.13 |
| CCGGCTAA | 0.342 |
| GTAGCGCA | -0.0646 |
| GCGTATTA | -0.149 |
| TAGCGCAA | -0.129 |
| ACGGTCTC | 0.0218 |
| AGTACGCC | -0.193 |
| GGGTAGTA | 0.111 |
| CACATCAG | -0.209 |
| ATTAGTCG | 0.00325 |
| ACTCCCTA | -0.257 |

| Sequence | PBM E-score |
| --- | --- |
| CGGCTTAG | 0.228 |
| CCTAACAC | 0.00789 |
| GGACACAA | -0.0182 |
| CAGTCGCG | -0.138 |
| CCTACCAC | -0.122 |
| ATAGCGGG | 0.0172 |
| CATCATAG | -0.0401 |
| ACGCAGTA | -0.0773 |
| GGATGTCA | 0.171 |
| CTCTGCTA | -0.0729 |
| CCGTGAGA | 0.0732 |
| ATGCTCAA | -0.123 |
| CACGTTTC | 0.0107 |
| ATCACTGG | -0.216 |
| ATCTTGCG | -0.0404 |
| ACTTAAAT | -0.0736 |
| ACTGTAAG | 0.0163 |
| TCGTAGCA | -0.272 |
| GTGTTAAC | -0.135 |
| CGCCCACC | -0.146 |
| TATAGTGA | -0.195 |
| GGAGAGAC | 0.0549 |

Source: the supplement of paper PMC3334620
